Source: the RNAGym collection of RNA variant scans (doi:10.7554/elife.90254)
The source gives no read counts; variants with many changes may rest on few reads.

B1: LINE1-mini (parent)
chain: GGCAGAGCUCAACACAGCGUGGCAAAGUGGCUGUGGCUAGACUGCC

Variants of: B1
Assay: self-cleavage, relative activity (ratio to wild type); higher = more cleavage; in vitro, sequencing; the parent is a self-cleaving ribozyme
G2C G19C C31G A39C gave a self-cleavage of 0.01.
For G2C G7U C13U G19C G27A G36A, the self-cleavage was 0.04.
Work on G2C C15G C18A G27A G35U yielded a self-cleavage of 0.01.
Work on G2C G7A C15G G29U U43C yielded a self-cleavage of 0.21.
G2C G5C G7U C42U showed a self-cleavage of 0.04.
G2C G29U C45U gave a self-cleavage of 0.1.
G2C G33U A39G showed a self-cleavage of 0.02.
G2U A4C U34G showed a self-cleavage of 0.01.
Work on G2C G29C U34C yielded a self-cleavage of 0.1.
Variant G2C G7C A24C G44U C46U has a self-cleavage of 0.07.
G2C G27U C31A U43A gave a self-cleavage of 0.05.
Work on G2C U9A A25C A39C U43A yielded a self-cleavage of 0.08.
Work on G2C C31A U38C A41G yielded a self-cleavage of 0.02.
In the case of G2C G22A A41U, the self-cleavage is reported as 0.09.
With G2C U9G A11U G22C G29C G33C A39C G40A the self-cleavage was 0.
Work on G2C G7A G17C G27C G36A yielded a self-cleavage of 0.2.
Variant G2C G7C A39C U43C has a self-cleavage of 0.21.
G2U A4G G22A C37G U43G C45A showed a self-cleavage of 0.
In the case of G2C G19A U20A C37U, the self-cleavage is reported as 0.83.
G2C G7U U28C G44C gave a self-cleavage of 0.29.
Variant G2C C18U G33A has a self-cleavage of 0.05.
G2C C13U A25U G29C U32A showed a self-cleavage of 0.02.
G2C G35A A39G showed a self-cleavage of 0.53.
With G2U A4G G19U G21U A25U G27U C37A C42G U43G the self-cleavage was 0.
For G2C C13G C15U G19U U34C G44A C46G, the self-cleavage was 0.03.
Work on G2C U20A G27A yielded a self-cleavage of 0.
Work on G2U A6G A16G A24G yielded a self-cleavage of 0.02.
G2C C10U G19C G29U C31U G40U C45U showed a self-cleavage of 0.
Work on G2C G7A A11U A16U G35C G36C yielded a self-cleavage of 0.
Work on G2C G27A A41U yielded a self-cleavage of 0.24.
G2C C10U A14U G27U U28C G30C gave a self-cleavage of 0.05.
With G2C G7C A11U A25C the self-cleavage was 0.02.
G2C C18U U32A showed a self-cleavage of 0.
With G2C C15A G29A the self-cleavage was 0.02.
G2C C18U G36U gave a self-cleavage of 0.02.
In the case of G2C U28A G40C, the self-cleavage is reported as 0.03.
G2C G7C C8A G36C C37U gave a self-cleavage of 0.13.
In the case of G2C G17U U32G G33U, the self-cleavage is reported as 0.11.
Work on G2C U9G A11U yielded a self-cleavage of 0.01.
With G2C G22U U34A the self-cleavage was 0.08.
For G2C U28A U32A G33A C42U, the self-cleavage was 0.03.
In the case of G2C U9G C15U C31G U32G U43G, the self-cleavage is reported as 0.
G2C C13A A14C U34C gave a self-cleavage of 0.08.
In the case of G2C C23A U32A G33A, the self-cleavage is reported as 0.01.
In the case of G2C G19U G29C U34C, the self-cleavage is reported as 0.01.
Variant G2C G7C U9G C15A G21U C42A has a self-cleavage of 0.
In the case of G2C G19A A24C, the self-cleavage is reported as 0.1.
With G2C G17A G36A C45A C46G the self-cleavage was 0.04.
With G2C U32G U38C the self-cleavage was 0.06.
For G2C G7U U9A C23G, the self-cleavage was 0.17.
In the case of G2U A4U A11G G36A, the self-cleavage is reported as 0.02.
G2U A4G C15A U34A G40C showed a self-cleavage of 0.05.
In the case of G2C C15A G30C C31U, the self-cleavage is reported as 0.14.
Work on G2C C13U G19A A39U C42A yielded a self-cleavage of 0.
With G2C G33U U34A G40A the self-cleavage was 0.01.
With G2C U9A A25C A41G the self-cleavage was 0.08.
With G2C G5A G21U C37U the self-cleavage was 0.03.
G2C U9C A12G G22U U32A gave a self-cleavage of 0.03.
G2C G21U G40A gave a self-cleavage of 0.05.
Variant G2C G36C A41G has a self-cleavage of 0.04.
Variant G2C C31G C42A has a self-cleavage of 0.01.
G2C C18G C31A showed a self-cleavage of 0.07.
G2C G5U U34C C46G gave a self-cleavage of 0.03.
With G2C C10U G22U U34A C46U the self-cleavage was 0.04.
With G2C G19C U43G the self-cleavage was 0.
With G2C G21U C23U G35C the self-cleavage was 0.05.
Work on G2C C10U U20G G35U yielded a self-cleavage of 0.04.
G2C G7A A11U C18A G30A A41U C45G gave a self-cleavage of 0.01.
For G2C G5C A6G U9A, the self-cleavage was 0.02.
In the case of G2C G19U G30U, the self-cleavage is reported as 0.16.
In the case of G2C G21U U32A, the self-cleavage is reported as 0.09.
In the case of G2C G5A U9G G19A G22C G30C, the self-cleavage is reported as 0.08.
Variant G2C G22A G33U A41C has a self-cleavage of 0.01.
For G2U A6C U20A G21A A25C C31U U34C, the self-cleavage was 0.01.
For G2C G21U A26C, the self-cleavage was 0.04.
G2C G21A C46G gave a self-cleavage of 0.6.
Work on G2C C31U G33U C42U yielded a self-cleavage of 0.02.
Work on G2C G30A U43A G44U yielded a self-cleavage of 0.19.
For G2U A4C C46U, the self-cleavage was 0.1.
For G2C G19U G21U, the self-cleavage was 0.08.
For G2C G7C U38A, the self-cleavage was 0.11.
In the case of G2C G7U C10G, the self-cleavage is reported as 0.05.
In the case of G2C G7U C10A, the self-cleavage is reported as 0.05.
